In all, about 220,000 compounds went through this assay and about 5,700 (2.6%) were called active. Inconclusive results, whose numbers are uncertain, are shown with a selection of clear calls. Calls come from the whole dose curve; as a rule, active = well fitted inhibition curve with a large enough effect; inconclusive = small, poorly fitted or top-dose-only effect; inactive = no such curve, though single readings can be large or run the other way. Potencies beside an inconclusive call are fits to weak or partial responses and may not hold up.
These compounds were tested against Lysine-specific demethylase 5B (Homo sapiens) (UniProt Q9UGL1) (assay: Primary screen for KDM5B Histone Demethylases FDH-coupled qHTS). Settings: FDH-coupled NADH fluorescence (FDH is formaldehyde dehydrogenase); activity change, negative = inhibition: at 57.7 µM (top of the series) unless noted.
Chain of UniProt Q9UGL1 (Q9UGL1 whole entry, looked up): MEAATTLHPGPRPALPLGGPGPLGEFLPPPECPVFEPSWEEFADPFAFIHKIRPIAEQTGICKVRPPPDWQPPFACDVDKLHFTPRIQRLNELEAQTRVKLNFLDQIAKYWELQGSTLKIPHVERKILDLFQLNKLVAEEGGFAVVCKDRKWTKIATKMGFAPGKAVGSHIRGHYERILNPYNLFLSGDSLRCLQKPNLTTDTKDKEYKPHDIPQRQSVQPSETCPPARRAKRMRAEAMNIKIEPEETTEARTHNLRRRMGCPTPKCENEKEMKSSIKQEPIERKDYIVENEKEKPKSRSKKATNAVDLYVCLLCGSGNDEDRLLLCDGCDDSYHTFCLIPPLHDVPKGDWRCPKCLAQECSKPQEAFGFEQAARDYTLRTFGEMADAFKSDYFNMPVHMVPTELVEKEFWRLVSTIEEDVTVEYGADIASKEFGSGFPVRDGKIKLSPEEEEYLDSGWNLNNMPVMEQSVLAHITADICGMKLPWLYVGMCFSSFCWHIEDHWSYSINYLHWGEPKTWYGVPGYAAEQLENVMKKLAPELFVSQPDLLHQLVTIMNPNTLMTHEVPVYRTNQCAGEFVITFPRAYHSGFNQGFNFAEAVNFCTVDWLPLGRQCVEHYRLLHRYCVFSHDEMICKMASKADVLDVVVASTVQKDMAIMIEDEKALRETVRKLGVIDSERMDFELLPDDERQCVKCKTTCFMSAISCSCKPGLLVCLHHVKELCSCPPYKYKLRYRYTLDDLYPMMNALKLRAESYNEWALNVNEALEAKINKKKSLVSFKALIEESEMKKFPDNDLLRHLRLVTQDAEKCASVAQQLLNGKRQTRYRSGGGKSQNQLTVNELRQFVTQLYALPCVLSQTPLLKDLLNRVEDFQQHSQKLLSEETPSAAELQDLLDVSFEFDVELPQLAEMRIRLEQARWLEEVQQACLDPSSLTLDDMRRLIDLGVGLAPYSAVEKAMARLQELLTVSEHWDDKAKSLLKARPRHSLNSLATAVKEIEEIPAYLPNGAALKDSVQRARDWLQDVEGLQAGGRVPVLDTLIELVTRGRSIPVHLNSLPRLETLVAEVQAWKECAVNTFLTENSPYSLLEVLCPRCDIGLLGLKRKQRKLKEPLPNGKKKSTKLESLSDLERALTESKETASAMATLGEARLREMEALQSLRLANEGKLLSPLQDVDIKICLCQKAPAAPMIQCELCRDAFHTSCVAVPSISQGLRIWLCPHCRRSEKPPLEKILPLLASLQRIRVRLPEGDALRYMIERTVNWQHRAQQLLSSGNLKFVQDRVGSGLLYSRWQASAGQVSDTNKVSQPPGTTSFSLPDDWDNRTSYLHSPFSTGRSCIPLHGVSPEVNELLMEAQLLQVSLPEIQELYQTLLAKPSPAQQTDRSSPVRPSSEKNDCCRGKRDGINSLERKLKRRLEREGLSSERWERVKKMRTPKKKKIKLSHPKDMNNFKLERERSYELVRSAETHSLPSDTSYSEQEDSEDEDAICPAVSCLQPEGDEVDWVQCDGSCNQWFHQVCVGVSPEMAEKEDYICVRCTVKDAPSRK
In short: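 qHTS format, multiple compound concentrations. Buffer 50 mM HEPES pH 7.5/0.01% Tween-20; 200 nM KDM5BΔAP final; 10 min compound preincubation; substrate-mix levels 12.5 µM peptide, 25 µM α-KG, 0.25 mM NAD⁺; 30 min RT; ΔRFU.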
For `COc1ccc2[nH]cc(CCNC(=O)Nc3ccccc3C)c2c1`, the Potency was inconclusive: 2.24 µM [inhibitor, partial curve, poor fit]. In the case of `Cn1nc(C(=O)Nc2nc3c(s2)CN(C(=O)OC(C)(C)C)CC3)c2ccccc2c1=O`, the “activity change, negative = inhibition” value is reported as inactive: 6.27%. In the case of `CN1CC(=O)N(C2CCCNCC2)Cc2c1ncnc2N1CCC(N2CCCC2)CC1` (configuration not stated), the Potency is reported as inconclusive: 35.5 µM [inhibitor, partial curve, poor fit]. `COc1ccc(-c2cc(C(=O)NCC3CC3)c3c(C4CCCN4)noc3n2)cc1` (configuration not stated) was tested, and the Potency was inconclusive: 56.2 µM [inhibitor, partial curve, poor fit]. In the case of `Cc1ccc(-c2cc(C(=O)O)c3ccccc3n2)o1`, the “activity change, negative = inhibition” value is reported as inactive: -1820%. For `CCS(=O)(=O)N1CCC(Nc2nc3ccccc3o2)CC1`, the “activity change, negative = inhibition” value was inactive: 15.7%. In the case of `COc1cccc(CN2CCC3(CC2)CN(c2ccncn2)CC3CO)c1OC` (configuration not stated), the “activity change, negative = inhibition” value is reported as inactive: -3.56%. In the case of `COc1ccc(CCNc2nc3c(c(=O)n(C)c(=O)n3C)n2Cc2ccc(F)cc2)cc1OC`, the activity change, negative = inhibition is reported as inconclusive: -44.4% [inhibitor] [at 11.5 µM]. With `CCOC(=O)c1cc2c(=O)n3ccccc3nc2n(Cc2ccco2)c1=NC(=O)c1cc(C)cc(C)c1` the Potency was inconclusive: 15.8 µM [inhibitor, partial curve, poor fit]. `COc1ccc(-c2cc(C(=O)NCC(F)(F)F)c3c(C4CCNC4)nn(C)c3n2)cc1` (configuration not stated) was tested, and the Potency was inconclusive: 56.2 µM [inhibitor, partial curve, poor fit]. In the case of `Cc1ccc(-c2c3c(nc4sc5c(c24)CCCC5)CC(C)(C)CC3=O)cc1`, the “activity change, negative = inhibition” value is reported as inactive: 1.23%. With `CNC(=O)NC(=O)CSc1nnc(-c2ccccc2Cl)n1-c1cccc(C(F)(F)F)c1` the “activity change, negative = inhibition” value was inactive: -18.9%. In the case of `Cc1ccc(C)c(C(C)NC(=O)C2CCCCC2)c1` (configuration not stated), the “activity change, negative = inhibition” value is reported as inactive: 9.95%. In the case of `Cc1cccc2c1N(Cc1ccc(OC(C)C)cc1)C(=O)C2=O`, the Potency is reported as inconclusive: 39.8 µM [inhibitor, single point]. With `CC(C)Cc1nc2nccc(-c3cccs3)n2n1` the Potency was active: 25.1 µM. With `CCn1ncc(NC(=O)Cn2ncc3cc(-c4ccc(F)cc4F)ccc32)n1` the Potency was inconclusive: 11.2 µM [inhibitor, partial curve]. With `O=C(NCCc1ccncc1)c1cccnc1OC1CCNCC1` the Potency was inconclusive: 12.6 µM [inhibitor, partial curve]. For `CCc1cc(=O)oc2cc(C)cc(OC(C)C(=O)NCCN3CCOCC3)c12` (configuration not stated), the Potency was inconclusive: 22.4 µM [inhibitor, partial curve, poor fit]. `CCn1cc(C(=O)NCCc2ccccc2)c(=O)c2cc(S(=O)(=O)N3CCOCC3)ccc21` was tested, and the Potency was inconclusive: 2.24 µM [inhibitor, full curve, poor fit]. With `CCCc1nn2c(=O)cc(COC(=O)c3ccc(NC(=O)c4cccs4)cc3)nc2s1` the Potency was inconclusive: 31.6 µM [inhibitor, partial curve, poor fit]. With `CCc1ccc(NC(=O)CSC2=Nc3ccccc3C3=NC(CCC(=O)NCc4cccs4)C(=O)N23)cc1` (configuration not stated) the Potency was inconclusive: 28.2 µM [inhibitor, single point]. With `Cc1oc(-c2cccc(C(F)(F)F)c2)nc1CN(C)Cc1cnn(C)c1` the Potency was inconclusive: 14.1 µM [inhibitor, single point]. In the case of `COCCNC(=O)c1ccc2c(c1)N(C)C(CC(=O)NC(C)(C)CO)CO2` (configuration not stated), the Potency is reported as active: 31.6 µM. `C[C@]1(CO)[C@H]2Cc3sc(-c4ccsc4)nc3[C@@H](CC(=O)NCc3ccco3)[C@]2(C)CC[C@H]1O` was tested, and the Potency was inconclusive: 22.4 µM [inhibitor, partial curve]. With `COc1ccc(CNC(=O)N2c3ccccc3CC2c2nc(C(C)C)no2)cc1` (configuration not stated) the Potency was inconclusive: 14.1 µM [inhibitor, single point]. With `Cn1c(=O)c2ccnn2c2ccc(C(=O)NCC3CCN(Cc4cccc(F)c4)CC3)cc21` the Potency was active: 28.2 µM. In the case of `COc1ccccc1-c1cc(C(=O)NCCc2ccc(Cl)cc2)nc2c1cnn2C`, the Potency is reported as active: 79.4 µM. `CC(=O)Oc1ccc(C(=O)O)c(OC(C)=O)c1` was tested, and the Potency was inconclusive: 39.8 µM [inhibitor, partial curve, poor fit]. With `CCOc1ccccc1/C=C/C(=O)c1cccc(O)c1` the “activity change, negative = inhibition” value was inactive: -9.65%. `N[C@H](C(=O)N1CCC2(CC1)C(=O)NCN2C(=O)Cc1c[nH]c2ccccc12)c1ccccc1` was tested, and the Potency was inconclusive: 56.2 µM [inhibitor, partial curve, poor fit]. `CCCC(=O)N1Cc2ccccc2CC2(CCCN2CCC)C1` (configuration not stated) was tested, and the Potency was inconclusive: 50.1 µM [inhibitor, partial curve, poor fit]. In the case of `CN1c2cc(C(=O)N3CCN(c4ccccc4)CC3)ccc2C(=O)N2CCCCC21` (configuration not stated), the Potency is reported as inconclusive: 25.1 µM [inhibitor, partial curve, poor fit]. With `CC(=O)c1ccc(N2CCC(Oc3ccc(C)cc3)(C(=O)O)CC2)nc1` the Potency was inconclusive: 22.4 µM [inhibitor, single point]. `C[C@@H]1CN(C(=O)c2nc3sccn3c2-c2nc3ccccc3n2C)C[C@H](C)O1` was tested, and the Potency was inconclusive: 28.2 µM [inhibitor, partial curve, poor fit]. For `O=C(CCn1ccn2nc3c(c2c1=O)CCCC3)Nc1ccc(Cl)c(C(F)(F)F)c1`, the Potency was inconclusive: 22.4 µM [inhibitor, single point]. `CCOC(=O)c1oc2cc(O)ccc2c(=O)c1-c1ccc(Br)cc1` was tested, and the “activity change, negative = inhibition” value was inactive: -9.88%. In the case of `O=C(NCCC1CCN(C(=O)Nc2cc(F)cc(F)c2)CC1)c1ccccn1`, the Potency is reported as inconclusive: 14.1 µM [inhibitor, partial curve]. `Cc1cc(C)cc(OCC(=O)Nc2ccc3oc(-c4ccncc4)nc3c2)c1` was tested, and the “activity change, negative = inhibition” value was inactive: 31.1%. `Cc1cccc2c1-c1sc(C(=O)NCc3ccccc3Cl)cc1CO2` was tested, and the Potency was inconclusive: 28.2 µM [inhibitor, partial curve, poor fit]. In the case of `COc1ccc(-c2nc3cnccn3c2NCCC(=O)Nc2ccc(C)cc2C)cc1`, the Potency is reported as active: 25.1 µM. `CCOC(=O)N1CCN(S(=O)(=O)c2cc(Cl)c(C)cc2OCC)CC1` was tested, and the “activity change, negative = inhibition” value was inactive: 14.6%. For `O=C(N[C@H]1CCN2C(=O)N(c3cccc4nsnc34)C(=O)[C@@H]2C1)c1ccc(F)c(Cl)c1`, the Potency was active: 31.6 µM.

— PubChem BioAssay AID1347165 (National Center for Advancing Translational Sciences (NCATS), 2019)
Note: nearly all actives have a fitted effect of over 70% in size.
Potency is the fitted concentration of half-maximal effect; tags give direction and shape of the fitted curve.
Throughout, for activity change, negative = inhibition: 0% is about no effect.
